Assay [1] has as its target T1, mouse GPC3-His protein (Sino Biological, Cat. No. 50989-M08B) (mouse, UniProt Q8CFZ4 25-558).
T1 construct: Bought protein; also called mouse GPC3 protein; not shown: His tag
The experiment in a line: ELISA; antibody 0.001 nM. On the procedure:
(§1) After incubation for 2 h at 37° C., the plate was washed 3 times with PBS.
For orientation: In an ELISA, binding on a coated surface is turned into a signal by an enzyme label.

For assay [2], the target named is T1, mouse GPC3-His protein (Sino …). In words: ELISA; antibody 0.0001 nM. On the procedure:
as §1

For assay [3] the target is unchanged. The experiment in a line: ELISA; antibody 1 nM. On the procedure:
as §1

Assay [4] shares this target. In words: SPR (Biacore), antibody captured on Protein A chip. On the procedure: (§2) The sample and running buffer was HBS-EP+ (10 mM HEPES, 150 mM NaCl, 3 mM EDTA, 0.05% surfactant P20) (GE Healthcare; BR-1006-69). The flow cell was set at 25° C. The sample block was set at 16° C. Both were pretreated with the running buffer. […] The association and dissociation processes of the antibody with the antigen protein were recorded, and finally, the chip was regenerated using Glycine pH 1.5 (GE Healthcare; BR-1003-54). […] The dissociation phase was monitored for up to 600 s and triggered by switching from the sample solution to the running buffer. The surface was regenerated by washing with 10 mM glycine solution (pH 1.5) at a flow rate of 30 μL/min for 30 s. The difference in bulk refractive index was corrected by subtracting the responses obtained from the goat anti-human Fc surface. Blank injections were also subtracted (double reference). To calculate the apparent KD and other kinetic parameters, the Langmuir 1:1 model was used.

For assay [5] the target is unchanged. In words: ELISA; antibody 100 nM. On the procedure: as §1
The target is the same in assay [6]. The experiment in a line: ELISA; antibody 0.1 nM. On the procedure: as §1
Assay [7] shares this target. The experiment in a line: ELISA; antibody 0.01 nM. On the procedure: as §1
Assay [8] shares this target. The experiment in a line: ELISA; antibody 10 nM. On the procedure: as §1
Assay [9] concerns the target T2, human GPC3 (Gln25-His559)-His protein (Acro, Cat. No. GP3-H52H4) (human, UniProt P51654 25-559).
T2 construct: Bought protein; also called human GPC3-His protein; human GPC3-his protein; not shown: His tag
In words: ELISA; antibody 0.001 nM. On the procedure:
as §1

The target in assay [10] is T3, human GPC3 on cells (HepG2 endogenous; CHO-K1 recombinant clones CHOK1-hGPC3.1C3, 2B5, 3E9) (human, UniProt P51654 25-554).
T3 construct: Full-length human GPC3 (NCBI NM_004484.3) transfected into CHO-K1; HepG2 expresses GPC3 endogenously; also called CHO-K1-human GPC3 cells; HepG2 cells
The experiment in a line: FACS on CHO-K1-human GPC3 cells.

Assay [11] concerns the target T4, monkey GPC3-His protein (Acro, Cat. No. GP3-05225) (monkey, UniProt A5A6P7 25-559).
T4 construct: Bought protein; the soluble protein surely lacks signal peptide and C-terminal anchor region; also called monkey GPC3 protein; not shown: His tag
The experiment in a line: ELISA; antibody 0.0001 nM. On the procedure: as §1

Assay [12] addresses T2, human GPC3 (Gln25-His559)-His protein …. The experiment in a line: ELISA; antibody 0.0001 nM. On the procedure:
as §1

For assay [13] the target is unchanged. In words: ELISA; antibody 1 nM. On the procedure: as §1
For assay [14], the target named is T4, monkey GPC3-His protein (Acro, Cat. No. …). The experiment in a line: SPR (Biacore), antibody captured on Protein A chip. On the procedure:
as §2
On the technique in general: Surface plasmon resonance follows binding to a sensor surface in real time, without labels.

Assay [15] deals with T2, human GPC3 (Gln25-His559)-His protein …. The experiment in a line: SPR (Biacore), antibody captured on Protein A chip. On the procedure: as §2
Assay [16] has the same target. The experiment in a line: ELISA; antibody 100 nM. On the procedure:
as §1

The target is the same in assay [17]. In words: ELISA; antibody 0.1 nM. On the procedure:
as §1

The target is the same in assay [18]. In words: ELISA; antibody 0.01 nM. On the procedure:
as §1

For assay [19], the target named is T5, monkey GPC3 on HEK293T cells (monkey, UniProt A5A6P7 25-554).
T5 construct: Full-length monkey GPC3 (NCBI XP_011739317.1) transfected into HEK293T; also called HEK293T-monkey GPC3 cells; HEK293T-monkey-GPC3
In words: FACS on HEK293T-monkey GPC3 cells.

Assay [20] concerns the target T6, polypeptide YP7pep of human GPC3 (Asp511-Ser560) (human).
T6 construct: Synthetic peptide made by GL Biochem; also called polypeptide YP7pep protein
T6 peptide: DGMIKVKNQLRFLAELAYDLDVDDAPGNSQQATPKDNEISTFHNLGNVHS
The experiment in a line: ELISA on coated polypeptide YP7pep, HRP-labeled secondary antibody. On the procedure:
as §1

For assay [21], the target named is T2, human GPC3 (Gln25-His559)-His protein …. The experiment in a line: ELISA; antibody 10 nM. On the procedure:
as §1

Assay [22] addresses T3, human GPC3 on cells (HepG2 endogenous; …). In words: FACS on HepG2 cells.
Assay [23] has as its target T2, human GPC3 (Gln25-His559)-His protein …. The experiment in a line: SPR (Biacore), antibody captured on Protein A chip. On the procedure:
as §2
This is another data set of the same source.

Assay [24] deals with T3, human GPC3 on cells (HepG2 endogenous; …). The experiment in a line: FACS on HepG2 cells. The source holds these as a separate data set.
Assay [25] concerns the target T4, monkey GPC3-His protein (Acro, Cat. No. …). In words: ELISA; antibody 0.001 nM. On the procedure:
as §1

Assay [26] has the same target. In words: ELISA; antibody 1 nM. On the procedure:
as §1

The target is the same in assay [27]. In words: ELISA; antibody 100 nM. On the procedure:
as §1

For assay [28] the target is unchanged. The experiment in a line: ELISA; antibody 0.1 nM. On the procedure:
as §1

The target is the same in assay [29]. In words: ELISA; antibody 0.01 nM. On the procedure:
as §1

For assay [30] the target is unchanged. In words: ELISA; antibody 10 nM. On the procedure:
as §1

The record followed here is patent US20240052055A1 (SIMCERE ZAIMING PHARMACEUTICAL, published 2024).

The term Kd denotes a measure of binding affinity in units of concentration. Usually koff stands for a measure of how fast the partners let go of each other. What is called kon is a measure of how fast the partners come together. As usually defined, the EC50 is the midpoint of the concentration-response curve.

Like-named read-outs stand apart in the source and are kept apart here.

T1 sequence (Q8CFZ4 25-558 limits assumed): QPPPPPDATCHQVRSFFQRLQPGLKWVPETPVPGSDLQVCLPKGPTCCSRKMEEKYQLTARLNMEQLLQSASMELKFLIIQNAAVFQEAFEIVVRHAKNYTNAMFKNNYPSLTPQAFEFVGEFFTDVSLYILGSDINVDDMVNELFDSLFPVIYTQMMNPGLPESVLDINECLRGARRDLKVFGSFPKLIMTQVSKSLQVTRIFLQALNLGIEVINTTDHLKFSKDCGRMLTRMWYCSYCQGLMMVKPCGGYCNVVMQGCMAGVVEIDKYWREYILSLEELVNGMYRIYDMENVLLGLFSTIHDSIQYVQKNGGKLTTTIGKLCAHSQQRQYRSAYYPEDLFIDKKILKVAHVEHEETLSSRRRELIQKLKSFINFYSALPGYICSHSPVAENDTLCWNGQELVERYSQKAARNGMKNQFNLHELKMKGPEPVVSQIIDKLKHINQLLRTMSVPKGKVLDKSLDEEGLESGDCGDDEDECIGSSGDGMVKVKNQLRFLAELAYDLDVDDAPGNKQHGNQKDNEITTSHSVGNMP

B1: Tab005 (T2-23 scFv-hFc) (Fc fusion)
chain: QSALTQPPSASGSPGQSVTISCTGTSSDVGGYNYVSWYQQYPGKAPKLLIYGNSNRPSGVPDRFSGSKSGTSASLAITGLQAEDGADYYCQSYDSSLRVVFGGGTKVTVLGGGGGSGGGGSGGGGSQVQLQESGGGLVQPGRSLRLSCAASGFTFSSYAMHWVRQAPGKGLEWVSAISSSGRSTYYADSVEGRFTISRDNSKNTLYLQMNSLRAEDTAVYYCAKDRRGSHADALNVWGQGTLVTVSS[human IgG1 Fc with changes left out]
notes: Control antibody: VL-(GGGGS)3-VH of T2-23 fused to human IgG1 Fc; also called T2-23 scFv-human IgG1 Fc
On to B1, for which the OD450 in assay [1] turned out to be 0.088; in assay [2] it was 0.056; in assay [3], 1.39; in assay [5], 2.19; in assay [6], 1.41; in assay [7], 0.304. Also, the OD450 in [8] amounted to 2.04. Also, in [4], the dissociation constant Kd was 0.0813 nM. In [4], this molecule had a koff of 4.25e-05 s⁻¹. Moreover, the kon in assay [4] turned out to be 524000 M⁻¹ s⁻¹.

B2: S001-NB152-1 VHH-hFc (Fc fusion)
chain: QVQLVESGGGLVQAGGSLSLSCAASGRRFSTNVMGWFRQAPGKEREFLAAINWVIGNTNYAESVKGRFTISRDNAKETVYLQMDNLKVEDTAVYYCAGRSSYYTSSRREDYDYWGQGTQVTVSS[human IgG1 Fc with changes left out]
notes: VHH recombined with human IgG1 Fc (VHH-hFc); the junction is not described
For B2, the OD450 in assay [1] worked out at 0.049; in assay [9], 0.053; in assay [2] it was 0.048; in [11] it was 0.045; in [12], 0.046; in assay [3] it was 0.461. For the same molecule, the OD450 was 0.282 in assay [13]; 0.324 in [5]; 0.354 in assay [16]; 0.153 in assay [6]; 0.127 in assay [17]; 0.059 in assay [7]. Besides, the OD450 amounted to 0.055 in assay [18], 0.55 in assay [8] and 0.325 in assay [21]. Also, the EC50 turned out to be 0.37 nM in assay [10], 0.77 nM in assay [19] and 0.71 nM in assay [22]. For the same molecule, the “Max MFI” value in assay [10] turned out to be 3510; in assay [19], 15500; in [22], 2020. The Kd in assay [4] is 5.74 nM; in assay [14], 5.63 nM; in [15], 7.45 nM. Moreover, the koff in [4] came to 0.00116 s⁻¹; in [14], 0.000983 s⁻¹; in assay [15], 0.00114 s⁻¹. Besides, the results for the kon in [4], in [14] and in assay [15] were 203000 M⁻¹ s⁻¹, 175000 M⁻¹ s⁻¹ and 153000 M⁻¹ s⁻¹, respectively. Besides, in [20], the binding result is “no binding (tested: 100 nM)”.

B3: VHH-12 VHH-hFc (Fc fusion)
chain: QVQLVESGGGLVQAGGSLRLSCAASGFTLENYAIGWFRQAPGKEREGVSYITGGTGTTVYADSVKGRFTISRDNTKNTVYLQMNSLKPEDTAVYFCATLKRTTAGGWPKPGRIGGQGTQVTVSS[human IgG1 Fc with changes left out]
notes: VHH recombined with human IgG1 Fc (VHH-hFc); the junction is not described; also called VFIH-12
In assay [23], B3 had a Kd of 16.7 nM, a koff of 0.0024 s⁻¹ and a kon of 144000 M⁻¹ s⁻¹. Further, in [24], the EC50 amounted to 0.18 nM.

B4: S001-NB150-20(cyno+) VHH-hFc (Fc fusion)
chain: QVQLVESGGGLVQAGGSLKLSCAASGRSFSPYAMGWFRQAPGKDREFVAAISNSGGSTYYADAVKGRFSISRDNAKNTVYLQMNNLEPEDTAVYYCTGPVKRYSTDFQGGDYWGQGTQVTVSS[human IgG1 Fc with changes left out]
notes: VHH recombined with human IgG1 Fc (VHH-hFc); the junction between VHH and Fc is not described
Consider B4, for which the OD450 worked out at 0.049 in assay [25]; 0.051 in assay [9]; 0.046 in assay [11]; 0.048 in assay [12]; 1.76 in assay [26]; 1.72 in assay [13]. In addition, the OD450 in [27] is 2.37; in assay [16], 2.24; in assay [28], 0.684; in [17], 0.624; in assay [29], 0.097; in assay [18] it was 0.095. Further, the OD450 in [30] turned out to be 2.01; in [21], 1.96. Moreover, the “Max MFI” value in assay [10] amounted to 2240; in assay [19], 10400; in assay [22], 2460. For the same molecule, the figures for the Kd in [14] and in assay [15] were 4.23 nM and 6.06 nM, respectively. In addition, the figures for the koff in assay [14] and in assay [15] were 0.00103 s⁻¹ and 0.00241 s⁻¹, respectively. In addition, the association rate constant (kon) in assay [14] was found to be 243000 M⁻¹ s⁻¹; in [15] it was 398000 M⁻¹ s⁻¹. Further, the EC50 in assay [19] amounted to 57.6 nM; in assay [22], 9.22 nM. In addition, the binding result in [20] was “no binding (tested: 100 nM)”.
